Assay results reported in the supplement of paper PMC11417369.
± gives the standard deviation of the averaged measurements. The list shows a part of the results.

What follows are sequences tested on PfAP2-I AP2 domain 3 (GST-tagged) (assay: gcPBM binding intensity (ln(normalized median fluorescence intensity)); higher = stronger DNA binding).
Procedure, shortened: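 After 1 h on an Agilent 4 × 180k array of primer-extended double-stranded 36-bp intergenic genomic probes and negative controls, bound GST-tagged P. falciparum DNA-binding domains were detected with Alexa488 anti-GST antibody and scanned at 488 nm. The domains had been expressed in E. coli, and binding took place in 1× PBS with 1% milk, 0.2 mg/ml BSA, 0.5% salmon testes DNA and 0.03% Triton X-100. Binding intensity is the highest Masliner-normalised natural-log median intensity across replicate spots of either probe orientation.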

| Sequence | gcPBM binding intensity (ln) |
| --- | --- |
| TTATGATAATTTTGCACACACTTAGGAAAAATTATG [CACACA_site4949] | 9.4 ± 0.19 |
| AAATAATATATATACACACACACATATATATATACA [CACACA_site554] | 8.02 ± 0.39 |
| ACGTATATTTTTACATGTACATATGTAAAAAATTTT [XGTACX_site4587] | 7.92 ± 0.39 |
| TGTTTTTCATAGTGCACACATAACCAAAAATAGTAT [CACACA_site3150] | 11.5 ± 0.67 |
| TAAATATATAAATACACACACATACACAAAAAAAAA [CACACA_site5890] | 8.12 ± 0.57 |
| TATACACCCTAAAATACACACACACCCACCCATATA [CACACA_site9380] | 8.39 ± 0.79 |
| TATAAACCAATGAACACACAAACATATATATATATA [CACACA_site3168] | 9.44 ± 0.49 |
| TCTTTTTATATTTATTGTACATAAAAAATAAAACAT [XGTACX_site4073] | 8.03 ± 0.3 |
| TTTTTTTTTCTTTCTTTCTTTTGTAAAAACCTCAAA [CACACA_negctrl_site723] | 7.79 ± 0.7 |
| ATATGTATATATAAAAGTACGCGTAAAAAAAAAAAA [XGTACX_site5377] | 8.25 ± 0.71 |
| TAATATATATATTTATGTACATATAAATTTTCTCCT [XGTACX_site4496] | 7.71 ± 0.4 |
| TATTTTAAAACAAAAATATAATTTCATAAAAATATA [CACACA_negctrl_site394] | 7.2 ± 0.47 |
| ATAAAATAATCTTATGCACACCAAAAATTTATATAA [CACACA_site8332] | 9.21 ± 0.13 |
| ATATATCAAAAATGATGACATAAATATATTAATTTA [TGCATGCA_negctrl_site259] | 7.22 ± 0.46 |
| TATCTGTATGTATGTACACACAAAAAATGGAATATA [CACACA_site5947] | 7.84 ± 0.38 |
| TTTTTGTAAAATAAACGTACAAAACAATTGTTCATT [XGTACX_site6537] | 7.82 ± 0.4 |
| TTATATACATAAAAATGTACTTTTTATAAAATATAT [XGTACX_site8281] | 7.67 ± 0.32 |
| AAGTTAGTATTCTGCTGTACTTCTATATATAAGTGT [XGTACX_site7678] | 7.72 ± 0.59 |
| GAATGAATCAATGTTTGTACTCAACAAATTATAAGG [XGTACX_site5122] | 7.92 ± 0.38 |
| GCCTTCCTTCTAAATGCACACGGAAAGTATAAATGT [CACACA_site8797] | 9.83 ± 0.18 |
| TATATATAATACAGTATGCACTATTTTTATTAAAAA | 9.19 ± 0.13 |
| CAATAATTTTTTAAATGTACTTTATTATAATTTAAT [XGTACX_site135] | 7.54 ± 0.38 |
| ACAACATTTCTCAAATGTACATAATATAATTTATAT [XGTACX_site3224] | 7.61 ± 0.58 |
| TATTAATTCTTAAATTTTTTTTTTTAATTCCTAGGA [CACACA_negctrl_site879] | 7.12 ± 0.39 |
| TTTTCTTACATCTTATAAAAAAAAATATATATTATA [GTGCAC_negctrl_site118] | 7.55 ± 0.37 |
